The BET-seq Pho4 binding data (Le et al. 2018)
Some of the results follow. Values were computed here from the reads of four pooled replicates and scatter widely.

These sequences were tested against T1, Pho4 (S. cerevisiae) (UniProt P07270) (assay: relative binding free energy (BET-seq); higher = weaker binding). Conditions: reference: library average.
T1 sequence: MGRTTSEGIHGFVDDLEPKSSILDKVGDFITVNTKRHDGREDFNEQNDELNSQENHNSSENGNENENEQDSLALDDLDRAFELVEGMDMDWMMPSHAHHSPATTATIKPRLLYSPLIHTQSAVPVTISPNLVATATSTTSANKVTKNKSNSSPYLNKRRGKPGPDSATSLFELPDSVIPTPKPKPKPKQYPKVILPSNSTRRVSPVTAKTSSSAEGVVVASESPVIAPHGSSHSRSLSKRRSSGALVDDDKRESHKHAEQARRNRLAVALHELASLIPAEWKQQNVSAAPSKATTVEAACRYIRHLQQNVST

| Sequence | relative binding free energy |
| --- | --- |
| TAAATCACGTGTAAGG | 0.22 kcal/mol |
| TACATCACGTGGGTTA | -0.15 kcal/mol |
| CGTTTCACGTGGGTTC | 0.18 kcal/mol |
| GCGGACACGTGGTTTG | -0.09 kcal/mol |
| GTCGTCACGTGTGTAT | 0.16 kcal/mol |
| GGAGGCACGTGATGTA | -0.05 kcal/mol |
| GGGTGCACGTGTTTTG | 0.04 kcal/mol |
| GGGCGCACGTGTGATT | 0.08 kcal/mol |
| GGATGCACGTGGTAAT | -0.06 kcal/mol |
| AGGAGCACGTGTATAG | -0.07 kcal/mol |
| ATTTGCACGTGGGGTT | 0 kcal/mol |
| GATGTCACGTGTAGTA | 0.06 kcal/mol |
| TTTGCCACGTGGGGTG | -0.17 kcal/mol |
| CGTTACACGTGGGGGC | 0.01 kcal/mol |
| ACTGTCACGTGTGGTT | 0.1 kcal/mol |
| CTAGGCACGTGGTTGA | -0.25 kcal/mol |
| GGCTTCACGTGTTGGT | 0.22 kcal/mol |
| TTGTCCACGTGTGTTT | 0.14 kcal/mol |
| TATGCCACGTGAAGGT | 0.13 kcal/mol |
| AGGTACACGTGACGGT | 0.16 kcal/mol |
| TCTGTCACGTGGTCTG | -0.15 kcal/mol |
| GATTACACGTGAGGGT | 0.32 kcal/mol |
| TAGTCCACGTGATGTT | 0.26 kcal/mol |

| Sequence | relative binding free energy |
| --- | --- |
| ATTAACACGTGGGTTA | -0.02 kcal/mol |
| AGGTCCACGTGGGAAT | 0.06 kcal/mol |
| CGGGGCACGTGTAGTA | -0.18 kcal/mol |
| CGGGACACGTGAGGGG | 0.21 kcal/mol |
| TGTACCACGTGTTTGA | -0.06 kcal/mol |
| TTGTGCACGTGGGTCA | -0.24 kcal/mol |
| GCAGGCACGTGCGTTT | 0 kcal/mol |
| AGTTGCACGTGAAGAG | 0.16 kcal/mol |
| TTAGTCACGTGATGGT | 0.28 kcal/mol |
| GACAGCACGTGGTGGG | -0.06 kcal/mol |
| GGTGTCACGTGACATG | 0.23 kcal/mol |
| GTTTTCACGTGCAGTT | 0.38 kcal/mol |
| TGTATCACGTGGCTTG | 0.09 kcal/mol |
| TGGGGCACGTGTTCGA | -0.03 kcal/mol |
| TATCTCACGTGTTCAT | 0.31 kcal/mol |
| CGTTTCACGTGTTTCG | 0.19 kcal/mol |
| TTGGTCACGTGAATAG | 0.27 kcal/mol |
| TGGGTCACGTGGGGGT | 0.04 kcal/mol |
| TTTGTCACGTGATTTC | 0.23 kcal/mol |
| ATTAGCACGTGTGGCT | -0.15 kcal/mol |
| CTTTTCACGTGTGCTT | 0.24 kcal/mol |
| TGGGACACGTGTTTAT | 0.02 kcal/mol |
| TCTGGCACGTGTAGTA | -0.12 kcal/mol |

| Sequence | relative binding free energy |
| --- | --- |
| GGGTCCACGTGCTTGG | -0.08 kcal/mol |
| TGGGACACGTGGTGCC | 0.01 kcal/mol |
| GGGGGCACGTGATGAC | -0.04 kcal/mol |
| AAAGGCACGTGGGCTG | -0.2 kcal/mol |
| TTTAGCACGTGAGAAG | 0.1 kcal/mol |
| CTGGGCACGTGGTAAT | -0.15 kcal/mol |
| TGTGCCACGTGTAAGT | -0.05 kcal/mol |
| AGATACACGTGGGGGC | -0.06 kcal/mol |
| GGTGGCACGTGGTCTA | -0.18 kcal/mol |
| GTGGTCACGTGTTATA | 0.17 kcal/mol |
| GTGAGCACGTGGTGCG | -0.13 kcal/mol |
| GGTTGCACGTGGGCGT | -0.01 kcal/mol |
| GTGTTCACGTGACTGG | 0.3 kcal/mol |
| TACGTCACGTGCTTTT | 0.13 kcal/mol |
| TAGGTCACGTGGCGAG | 0.1 kcal/mol |
| GGAGTCACGTGGGGAT | 0.13 kcal/mol |
| TAGTACACGTGGGCTG | 0.03 kcal/mol |
| AATCGCACGTGGCGGT | 0.06 kcal/mol |
| TTCAGCACGTGGTTTT | -0.04 kcal/mol |
| AGAGTCACGTGTTGAG | 0.13 kcal/mol |
| AATATCACGTGTGTTG | 0.09 kcal/mol |
| TATGACACGTGGTTAA | -0.13 kcal/mol |
| GGGGCCACGTGTGGTT | 0 kcal/mol |

| Sequence | relative binding free energy |
| --- | --- |
| ATGGTCACGTGAGGAG | 0.31 kcal/mol |
| GTGGGCACGTGATCAT | 0.05 kcal/mol |
| GTGTTCACGTGAGTTA | 0.46 kcal/mol |
| AAGGTCACGTGCGTTA | 0.06 kcal/mol |
| GTTTGCACGTGGAACT | 0.06 kcal/mol |
| AACGGCACGTGTTGTT | -0.03 kcal/mol |
| ATGGTCACGTGCGTAA | 0.05 kcal/mol |
| TTGTGCACGTGGCAGA | 0 kcal/mol |
| GGATGCACGTGATCGG | 0.14 kcal/mol |
| CTGGACACGTGGGCTT | -0.08 kcal/mol |
| GGCATCACGTGGCGTA | 0.32 kcal/mol |
| TGTTTCACGTGAGCGA | 0.24 kcal/mol |
| TCAGTCACGTGGTAGT | 0.06 kcal/mol |
| GGTGACACGTGGGGCG | -0.16 kcal/mol |
| GAGTGCACGTGATATT | 0.19 kcal/mol |
| TTGAGCACGTGAGATG | 0.21 kcal/mol |
| GTTTACACGTGTGTCG | 0.13 kcal/mol |
| CTTTGCACGTGGGGTG | -0.13 kcal/mol |
| AAGTGCACGTGGTAGC | -0.07 kcal/mol |
| GGAGTCACGTGAAAGG | 0.37 kcal/mol |
| TCTTACACGTGCTGTT | 0.07 kcal/mol |
| TGACTCACGTGTTATG | 0.22 kcal/mol |
| TCAGTCACGTGTGTGA | 0.13 kcal/mol |

| Sequence | relative binding free energy |
| --- | --- |
| TGGCTCACGTGGTTGA | 0.11 kcal/mol |
| GTAGACACGTGGGTGA | -0.15 kcal/mol |
| AGTGTCACGTGCTTTT | -0.05 kcal/mol |
| TGGTTCACGTGGCTAT | 0.15 kcal/mol |
| TTAAGCACGTGTCAGG | -0.08 kcal/mol |
| TGCTTCACGTGTGAGA | 0.29 kcal/mol |
| GGAGTCACGTGGAGTA | 0.01 kcal/mol |
| ATGTGCACGTGGGGTG | -0.22 kcal/mol |
| GCTTGCACGTGAGGGC | 0.23 kcal/mol |
| GTGTACACGTGGGCAA | -0.02 kcal/mol |
| GTTAACACGTGCGGGT | 0.02 kcal/mol |
| GTTTGCACGTGTATCT | 0.16 kcal/mol |
| GTAGTCACGTGAGAAT | 0.29 kcal/mol |
| TAGTTCACGTGGTCGA | 0.11 kcal/mol |
| TTTTGCACGTGAAGTA | 0.24 kcal/mol |
| GGGGCCACGTGCGTTG | -0.17 kcal/mol |
| GCGGTCACGTGTTTGG | 0.19 kcal/mol |
| CGGTCCACGTGGGAGG | -0.15 kcal/mol |
| GAATTCACGTGTATAG | 0.31 kcal/mol |
| TTTGCCACGTGATTGT | 0.15 kcal/mol |
| TTTTTCACGTGAATCT | 0.25 kcal/mol |
| TGGCTCACGTGAGTTG | 0.22 kcal/mol |
| TTATACACGTGGTTCG | -0.12 kcal/mol |
